Measured values: paper PMC5908291, “The JmjN domain as a dimerization interface and a targeted inhibitor of KDM4 demethylase activity” (Oncotarget, 2018)
Results are given in words; binding and its absence hold for the method and conditions named. In cells and extracts the contact can be indirect. Some results given as binding are weak or reduced against the parent protein; the word gives no strength. For part of these data: Tags and fused reporters may be left off the sequences shown. Values belong to the molecule of their own block, whether it stands above or below them.

The chains behind the UniProt entries cited, without tags or fusion partners. Residues count along the entry.
UniProt O94953, residues 1-57: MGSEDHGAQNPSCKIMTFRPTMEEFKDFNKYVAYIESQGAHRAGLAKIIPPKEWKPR

B2: KDM4C with a C-terminal YN or YC tag (enzyme, human, UniProt Q9H3R0 1-1056, looked up)
chain: MEVAEVESPLNPSCKIMTFRPSMEEFREFNKYLAYMESKGAHRAGLAKVIPPKEWKPRQCYDDIDNLLIPAPIQQMVTGQSGLFTQYNIQKKAMTVKEFRQLANSGKYCTPRYLDYEDLERKYWKNLTFVAPIYGADINGSIYDEGVDEWNIARLNTVLDVVEEECGISIEGVNTPYLYFGMWKTTFAWHTEDMDLYSINYLHFGEPKSWYAIPPEHGKRLERLAQGFFPSSSQGCDAFLRHKMTLISPSVLKKYGIPFDKITQEAGEFMITFPYGYHAGFNHGFNCAESTNFATVRWIDYGKVAKLCTCRKDMVKISMDIFVRKFQPDRYQLWKQGKDIYTIDHTKPTPASTPEVKAWLQRRRKVRKASRSFQCARSTSKRPKADEEEEVSDEVDGAEVPNPDSVTDDLKVSEKSEAAVKLRNTEASSEEESSASRMQVEQNLSDHIKLSGNSCLSTSVTEDIKTEDDKAYAYRSVPSISSEADDSIPLSSGYEKPEKSDPSELSWPKSPESCSSVAESNGVLTEGEESDVESHGNGLEPGEIPAVPSGERNSFKVPSIAEGENKTSKSWRHPLSRPPARSPMTLVKQQAPSDEELPEVLSIEEEVEETESWAKPLIHLWQTKSPNFAAEQEYNATVARMKPHCAICTLLMPYHKPDSSNEENDARWETKLDEVVTSEGKTKPLIPEMCFIYSEENIEYSPPNAFLEEDGTSLLISCAKCCVRVHASCYGIPSHEICDGWLCARCKRNAWTAECCLCNLRGGALKQTKNNKWAHVMCAVAVPEVRFTNVPERTQIDVGRIPLQRLKLKCIFCRHRVKRVSGACIQCSYGRCPASFHVTCAHAAGVLMEPDDWPYVVNITCFRHKVNPNVKSKACEKVISVGQTVITKHRNTRYYSCRVMAVTSQTFYEVMFDDGSFSRDTFPEDIVSRDCLKLGPPAEGEVVQVKWPDGKLYGAKYFGSNIAHMYQVEFEDGSQIAMKREDIYTLDEELPKRVKARFSTASDMRFEDTFYGADIIQGERKRQRVLSSRFKNEYVADPVYRTFLKSSFQKKCQKRQ
notes: Lysine demethylase KDM4C (GASC1), human, ORF amplified from pCMV-HA-GASC1; 1056 aa as printed; BiFC pair: one molecule stands for the YN and the YC conjugate; also called KDM4C-YN; KDM4C-YC; source: HEK293, transiently transfected, in cells; not shown: YN (Venus YFP residues 1-172) on one copy or YC (Venus YFP residues 155-238) on the other, C-terminal, kept

Columns and labels:
[1] = biological target: isolated JmjN domain of KDM4B with a C-terminal YN or YC tag (human) (UniProt O94953); experiment: split reporter; BiFC (Venus YN + YC), live cell confocal imaging of HEK293 cells 20 h after co-transfection, 37°C, 5% CO2
[2] = biological target: isolated JmjN domain of KDM4B with a C-terminal YN or YC tag (human) (UniProt O94953); experiment: split reporter; BiFC (Venus YN + YC), immunofluorescence microscopy of fixed, permeabilised HEK293 cells 20 h after co-transfection; transfected cells marked by anti-YFP, anti-KDM4C or anti-HA
[3] = biological target: KDM4C lacking the JmjC domain, with a C-terminal YN or YC tag (human) (UniProt Q9H3R0); experiment: as above
[4] = biological target: B2; experiment: split reporter; BiFC (Venus YN + YC), live cell confocal imaging of HEK293 cells 20 h after co-transfection, 37°C, 5% CO2
[5] = biological target: B2; experiment: split reporter; BiFC (Venus YN + YC), immunofluorescence microscopy of fixed, permeabilised HEK293 cells 20 h after co-transfection; transfected cells marked by anti-YFP, anti-KDM4C or anti-HA
[6] = biological target: T1, KDM4A with a C-terminal YN or YC tag (human) (UniProt O75164); experiment: split reporter; BiFC (Venus YN + YC), live cell confocal imaging of HEK293 cells 20 h after co-transfection, 37°C, 5% CO2
T1 sequence: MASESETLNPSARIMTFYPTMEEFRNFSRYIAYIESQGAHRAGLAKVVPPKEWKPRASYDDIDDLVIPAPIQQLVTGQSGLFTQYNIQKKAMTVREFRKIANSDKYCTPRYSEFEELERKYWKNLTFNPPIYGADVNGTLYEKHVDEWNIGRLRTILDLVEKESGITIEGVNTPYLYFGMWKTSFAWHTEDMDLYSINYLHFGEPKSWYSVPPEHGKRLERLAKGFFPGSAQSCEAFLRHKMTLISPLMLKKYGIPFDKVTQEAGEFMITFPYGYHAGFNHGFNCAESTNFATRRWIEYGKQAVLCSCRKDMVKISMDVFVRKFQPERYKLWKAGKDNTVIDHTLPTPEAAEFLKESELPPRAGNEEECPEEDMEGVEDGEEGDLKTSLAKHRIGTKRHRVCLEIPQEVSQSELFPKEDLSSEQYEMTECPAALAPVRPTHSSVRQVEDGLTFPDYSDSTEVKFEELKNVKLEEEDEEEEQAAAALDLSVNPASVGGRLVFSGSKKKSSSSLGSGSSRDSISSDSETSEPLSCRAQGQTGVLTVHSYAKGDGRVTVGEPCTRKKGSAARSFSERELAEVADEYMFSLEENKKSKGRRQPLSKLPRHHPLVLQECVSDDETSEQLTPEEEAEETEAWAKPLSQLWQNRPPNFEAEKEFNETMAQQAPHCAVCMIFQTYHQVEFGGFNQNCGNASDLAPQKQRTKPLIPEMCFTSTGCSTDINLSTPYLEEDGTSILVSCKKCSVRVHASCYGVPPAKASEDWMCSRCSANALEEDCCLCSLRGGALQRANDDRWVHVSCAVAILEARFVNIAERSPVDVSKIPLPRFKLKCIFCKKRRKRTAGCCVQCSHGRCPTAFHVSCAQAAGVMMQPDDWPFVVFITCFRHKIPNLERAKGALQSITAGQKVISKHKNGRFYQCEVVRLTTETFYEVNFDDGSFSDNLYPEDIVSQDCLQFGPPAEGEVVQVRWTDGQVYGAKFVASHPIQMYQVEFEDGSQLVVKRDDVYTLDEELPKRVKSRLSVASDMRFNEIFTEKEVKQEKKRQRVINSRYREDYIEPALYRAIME

[7] = biological target: T1, KDM4A with a C-terminal YN or YC tag (human); experiment: split reporter; BiFC (Venus YN + YC), immunofluorescence microscopy of fixed, permeabilised HEK293 cells 20 h after co-transfection; transfected cells marked by anti-YFP, anti-KDM4C or anti-HA

binding [1]: binds | binding [2]: binds
Molecule: isolated JmjN domain of KDM4B with a C-terminal YN or YC tag (from UniProt O94953 1-57) (domain or fragment)

binding [3]: binds
B1: KDM4C lacking the JmjC domain, with a C-terminal YN or YC tag (enzyme, UniProt Q9H3R0)
chain: MEVAEVESPLNPSCKIMTFRPSMEEFREFNKYLAYMESKGAHRAGLAKVIPPKEWKPRQCYDDIDNLLIPAPIQQMVTGQSGLFTQYNIQKKAMTVKEFRQLANSGKYCTPRYLDYEDLERKYWKNLTFVAPIYGADINGSIYRKDMVKISMDIFVRKFQPDRYQLWKQGKDIYTIDHTKPTPASTPEVKAWLQRRRKVRKASRSFQCARSTSKRPKADEEEEVSDEVDGAEVPNPDSVTDDLKVSEKSEAAVKLRNTEASSEEESSASRMQVEQNLSDHIKLSGNSCLSTSVTEDIKTEDDKAYAYRSVPSISSEADDSIPLSSGYEKPEKSDPSELSWPKSPESCSSVAESNGVLTEGEESDVESHGNGLEPGEIPAVPSGERNSFKVPSIAEGENKTSKSWRHPLSRPPARSPMTLVKQQAPSDEELPEVLSIEEEVEETESWAKPLIHLWQTKSPNFAAEQEYNATVARMKPHCAICTLLMPYHKPDSSNEENDARWETKLDEVVTSEGKTKPLIPEMCFIYSEENIEYSPPNAFLEEDGTSLLISCAKCCVRVHASCYGIPSHEICDGWLCARCKRNAWTAECCLCNLRGGALKQTKNNKWAHVMCAVAVPEVRFTNVPERTQIDVGRIPLQRLKLKCIFCRHRVKRVSGACIQCSYGRCPASFHVTCAHAAGVLMEPDDWPYVVNITCFRHKVNPNVKSKACEKVISVGQTVITKHRNTRYYSCRVMAVTSQTFYEVMFDDGSFSRDTFPEDIVSRDCLKLGPPAEGEVVQVKWPDGKLYGAKYFGSNIAHMYQVEFEDGSQIAMKREDIYTLDEELPKRVKARFSTASDMRFEDTFYGADIIQGERKRQRVLSSRFKNEYVADPVYRTFLKSSFQKKCQKRQ

Molecule: B2
binding [4]: binds | binding [5]: binds

binding [4]: binds | binding [6]: binds | binding [5]: binds | binding [7]: binds
B3: KDM4A with a C-terminal YN or YC tag (enzyme, human, UniProt O75164 1-1064, looked up)
chain: MASESETLNPSARIMTFYPTMEEFRNFSRYIAYIESQGAHRAGLAKVVPPKEWKPRASYDDIDDLVIPAPIQQLVTGQSGLFTQYNIQKKAMTVREFRKIANSDKYCTPRYSEFEELERKYWKNLTFNPPIYGADVNGTLYEKHVDEWNIGRLRTILDLVEKESGITIEGVNTPYLYFGMWKTSFAWHTEDMDLYSINYLHFGEPKSWYSVPPEHGKRLERLAKGFFPGSAQSCEAFLRHKMTLISPLMLKKYGIPFDKVTQEAGEFMITFPYGYHAGFNHGFNCAESTNFATRRWIEYGKQAVLCSCRKDMVKISMDVFVRKFQPERYKLWKAGKDNTVIDHTLPTPEAAEFLKESELPPRAGNEEECPEEDMEGVEDGEEGDLKTSLAKHRIGTKRHRVCLEIPQEVSQSELFPKEDLSSEQYEMTECPAALAPVRPTHSSVRQVEDGLTFPDYSDSTEVKFEELKNVKLEEEDEEEEQAAAALDLSVNPASVGGRLVFSGSKKKSSSSLGSGSSRDSISSDSETSEPLSCRAQGQTGVLTVHSYAKGDGRVTVGEPCTRKKGSAARSFSERELAEVADEYMFSLEENKKSKGRRQPLSKLPRHHPLVLQECVSDDETSEQLTPEEEAEETEAWAKPLSQLWQNRPPNFEAEKEFNETMAQQAPHCAVCMIFQTYHQVEFGGFNQNCGNASDLAPQKQRTKPLIPEMCFTSTGCSTDINLSTPYLEEDGTSILVSCKKCSVRVHASCYGVPPAKASEDWMCSRCSANALEEDCCLCSLRGGALQRANDDRWVHVSCAVAILEARFVNIAERSPVDVSKIPLPRFKLKCIFCKKRRKRTAGCCVQCSHGRCPTAFHVSCAQAAGVMMQPDDWPFVVFITCFRHKIPNLERAKGALQSITAGQKVISKHKNGRFYQCEVVRLTTETFYEVNFDDGSFSDNLYPEDIVSQDCLQFGPPAEGEVVQVRWTDGQVYGAKFVASHPIQMYQVEFEDGSQLVVKRDDVYTLDEELPKRVKSRLSVASDMRFNEIFTEKEVKQEKKRQRVINSRYREDYIEPALYRAIME
notes: Lysine demethylase KDM4A (JmjD2A), human, ORF amplified from pCMV-HA-JmjD2A; BiFC pair: one molecule stands for the YN and the YC conjugate; also called KDM4A-YN; KDM4A-YC; source: HEK293, transiently transfected, in cells; not shown: YN (Venus YFP residues 1-172) on one copy or YC (Venus YFP residues 155-238) on the other, C-terminal, kept
